Experimental data reported in patent US20210238308A1 (Chugai, published 2021).

B1: 3D8VH-G1m/hT4VL-KT0.Avi I253M.M428F (antibody, human IgG1, kappa)
heavy: EVQLVESGGGLVQPGGSLRLSCAASGYTFTSYVMHWVRQAPGKGLEWVSAINPYNDGNYYADSVKGRFTISRDNSRKTLYLQMNSLRAEDTAVYYCARGAYKRGYAMDYWGQGTTVTVSSASTKGPSVFPLAPSSKSTSGGTAALGCLVKDYFPEPVTVSWNSGALTSGVHTFPAVLQSSGLYSLSSVVTVPSSSLGTQTYICNVNHKPSNTKVDKKV[human IgG1 Fc with I253M M428F (EU numbers) omitted here]
light: [about 200 residues omitted here]GGGGSGLNDIFEAQKIEWHE
B2: 3D8VH-G1m/hT4VL-KT0.Avi I253M.N315M (antibody, human IgG1, kappa)
heavy: EVQLVESGGGLVQPGGSLRLSCAASGYTFTSYVMHWVRQAPGKGLEWVSAINPYNDGNYYADSVKGRFTISRDNSRKTLYLQMNSLRAEDTAVYYCARGAYKRGYAMDYWGQGTTVTVSSASTKGPSVFPLAPSSKSTSGGTAALGCLVKDYFPEPVTVSWNSGALTSGVHTFPAVLQSSGLYSLSSVVTVPSSSLGTQTYICNVNHKPSNTKVDKKV[human IgG1 Fc with I253M N315M (EU numbers) omitted here]
light: [about 200 residues omitted here]GGGGSGLNDIFEAQKIEWHE
B3: 3D8VH-G1m/hT4VL-KT0.Avi I253M.N315Q (antibody, human IgG1, kappa)
heavy: EVQLVESGGGLVQPGGSLRLSCAASGYTFTSYVMHWVRQAPGKGLEWVSAINPYNDGNYYADSVKGRFTISRDNSRKTLYLQMNSLRAEDTAVYYCARGAYKRGYAMDYWGQGTTVTVSSASTKGPSVFPLAPSSKSTSGGTAALGCLVKDYFPEPVTVSWNSGALTSGVHTFPAVLQSSGLYSLSSVVTVPSSSLGTQTYICNVNHKPSNTKVDKKV[human IgG1 Fc with I253M N315Q (EU numbers) omitted here]
light: [about 200 residues omitted here]GGGGSGLNDIFEAQKIEWHE
B4: 3D8VH-G1m/hT4VL-KT0.Avi I253M.Q438E (antibody, human IgG1, kappa)
heavy: EVQLVESGGGLVQPGGSLRLSCAASGYTFTSYVMHWVRQAPGKGLEWVSAINPYNDGNYYADSVKGRFTISRDNSRKTLYLQMNSLRAEDTAVYYCARGAYKRGYAMDYWGQGTTVTVSSASTKGPSVFPLAPSSKSTSGGTAALGCLVKDYFPEPVTVSWNSGALTSGVHTFPAVLQSSGLYSLSSVVTVPSSSLGTQTYICNVNHKPSNTKVDKKV[human IgG1 Fc with I253M Q438E (EU numbers) omitted here]
light: [about 200 residues omitted here]GGGGSGLNDIFEAQKIEWHE
B5: 3D8VH-G1m/hT4VL-KT0.Avi I253M.T437D (antibody, human IgG1, kappa)
heavy: EVQLVESGGGLVQPGGSLRLSCAASGYTFTSYVMHWVRQAPGKGLEWVSAINPYNDGNYYADSVKGRFTISRDNSRKTLYLQMNSLRAEDTAVYYCARGAYKRGYAMDYWGQGTTVTVSSASTKGPSVFPLAPSSKSTSGGTAALGCLVKDYFPEPVTVSWNSGALTSGVHTFPAVLQSSGLYSLSSVVTVPSSSLGTQTYICNVNHKPSNTKVDKKV[human IgG1 Fc with I253M T437D (EU numbers) omitted here]
light: [about 200 residues omitted here]GGGGSGLNDIFEAQKIEWHE
B6: 3D8VH-G1m/hT4VL-KT0.Avi I253M.Y436T (antibody, human IgG1, kappa)
heavy: EVQLVESGGGLVQPGGSLRLSCAASGYTFTSYVMHWVRQAPGKGLEWVSAINPYNDGNYYADSVKGRFTISRDNSRKTLYLQMNSLRAEDTAVYYCARGAYKRGYAMDYWGQGTTVTVSSASTKGPSVFPLAPSSKSTSGGTAALGCLVKDYFPEPVTVSWNSGALTSGVHTFPAVLQSSGLYSLSSVVTVPSSSLGTQTYICNVNHKPSNTKVDKKV[human IgG1 Fc with I253M Y436T (EU numbers) omitted here]
light: [about 200 residues omitted here]GGGGSGLNDIFEAQKIEWHE
B7: 3D8VH-G1m/hT4VL-KT0.Avi I253Y (antibody, human IgG1, kappa)
heavy: EVQLVESGGGLVQPGGSLRLSCAASGYTFTSYVMHWVRQAPGKGLEWVSAINPYNDGNYYADSVKGRFTISRDNSRKTLYLQMNSLRAEDTAVYYCARGAYKRGYAMDYWGQGTTVTVSSASTKGPSVFPLAPSSKSTSGGTAALGCLVKDYFPEPVTVSWNSGALTSGVHTFPAVLQSSGLYSLSSVVTVPSSSLGTQTYICNVNHKPSNTKVDKKV[human IgG1 Fc with I253Y (EU numbers) omitted here]
light: [about 200 residues omitted here]GGGGSGLNDIFEAQKIEWHE
B8: 3D8VH-G1m/hT4VL-KT0.Avi I253Y.D312H (antibody, human IgG1, kappa)
heavy: EVQLVESGGGLVQPGGSLRLSCAASGYTFTSYVMHWVRQAPGKGLEWVSAINPYNDGNYYADSVKGRFTISRDNSRKTLYLQMNSLRAEDTAVYYCARGAYKRGYAMDYWGQGTTVTVSSASTKGPSVFPLAPSSKSTSGGTAALGCLVKDYFPEPVTVSWNSGALTSGVHTFPAVLQSSGLYSLSSVVTVPSSSLGTQTYICNVNHKPSNTKVDKKV[human IgG1 Fc with I253Y D312H (EU numbers) omitted here]
light: [about 200 residues omitted here]GGGGSGLNDIFEAQKIEWHE
B9: 3D8VH-G1m/hT4VL-KT0.Avi I253Y.L432P (antibody, human IgG1, kappa)
heavy: EVQLVESGGGLVQPGGSLRLSCAASGYTFTSYVMHWVRQAPGKGLEWVSAINPYNDGNYYADSVKGRFTISRDNSRKTLYLQMNSLRAEDTAVYYCARGAYKRGYAMDYWGQGTTVTVSSASTKGPSVFPLAPSSKSTSGGTAALGCLVKDYFPEPVTVSWNSGALTSGVHTFPAVLQSSGLYSLSSVVTVPSSSLGTQTYICNVNHKPSNTKVDKKV[human IgG1 Fc with I253Y L432P (EU numbers) omitted here]
light: [about 200 residues omitted here]GGGGSGLNDIFEAQKIEWHE
B10: 3D8VH-G1m/hT4VL-KT0.Avi I253Y.M428F (antibody, human IgG1, kappa)
heavy: EVQLVESGGGLVQPGGSLRLSCAASGYTFTSYVMHWVRQAPGKGLEWVSAINPYNDGNYYADSVKGRFTISRDNSRKTLYLQMNSLRAEDTAVYYCARGAYKRGYAMDYWGQGTTVTVSSASTKGPSVFPLAPSSKSTSGGTAALGCLVKDYFPEPVTVSWNSGALTSGVHTFPAVLQSSGLYSLSSVVTVPSSSLGTQTYICNVNHKPSNTKVDKKV[human IgG1 Fc with I253Y M428F (EU numbers) omitted here]
light: [about 200 residues omitted here]GGGGSGLNDIFEAQKIEWHE
B11: 3D8VH-G1m/hT4VL-KT0.Avi I253Y.N315M (antibody, human IgG1, kappa)
heavy: EVQLVESGGGLVQPGGSLRLSCAASGYTFTSYVMHWVRQAPGKGLEWVSAINPYNDGNYYADSVKGRFTISRDNSRKTLYLQMNSLRAEDTAVYYCARGAYKRGYAMDYWGQGTTVTVSSASTKGPSVFPLAPSSKSTSGGTAALGCLVKDYFPEPVTVSWNSGALTSGVHTFPAVLQSSGLYSLSSVVTVPSSSLGTQTYICNVNHKPSNTKVDKKV[human IgG1 Fc with I253Y N315M (EU numbers) omitted here]
light: [about 200 residues omitted here]GGGGSGLNDIFEAQKIEWHE

Target: T1, human TRIM21 PRYSPRY domain with N-terminal 6xHis tag (human)
T1 construct: Expressed from pET28a in E. coli; also called hTRIM21
T1 chain: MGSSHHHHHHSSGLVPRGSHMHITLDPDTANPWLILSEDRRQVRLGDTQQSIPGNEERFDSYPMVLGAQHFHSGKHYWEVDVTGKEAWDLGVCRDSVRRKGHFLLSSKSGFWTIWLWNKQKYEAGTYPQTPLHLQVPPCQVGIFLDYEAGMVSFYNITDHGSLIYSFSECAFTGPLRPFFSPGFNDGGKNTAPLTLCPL
Test: SPR, Ab captured on Protein L, hTRIM21 12.5-200 nM
Binder B1 has a Kd of 1.58 nM, a koff of 0.00356 s⁻¹ and a kon of 2.25e+06 M⁻¹ s⁻¹. B2 gave a Kd of 1.3 nM, a koff of 0.00235 s⁻¹ and a kon of 1.81e+06 M⁻¹ s⁻¹. B3 was tested, and the Kd was 1.35 nM, the koff was 0.00249 s⁻¹ and the kon was 1.85e+06 M⁻¹ s⁻¹. B4 gave a Kd of 0.901 nM, a koff of 0.00298 s⁻¹ and a kon of 3.31e+06 M⁻¹ s⁻¹. For B5, the Kd was 1.18 nM, the koff was 0.00343 s⁻¹ and the kon was 2.9e+06 M⁻¹ s⁻¹. Binder B6 has a Kd of 1.42 nM, a koff of 0.00155 s⁻¹ and a kon of 1.1e+06 M⁻¹ s⁻¹. B7 showed a Kd of 2.85 nM, a koff of 0.00806 s⁻¹ and a kon of 2.83e+06 M⁻¹ s⁻¹. With B8 the Kd was 0.982 nM, the koff was 0.00244 s⁻¹ and the kon was 2.48e+06 M⁻¹ s⁻¹. Work on B9 yielded a Kd of 1.74 nM, a koff of 0.00299 s⁻¹ and a kon of 1.72e+06 M⁻¹ s⁻¹. Work on B10 yielded a Kd of 0.834 nM, a koff of 0.00156 s⁻¹ and a kon of 1.87e+06 M⁻¹ s⁻¹. B11 showed a Kd of 0.791 nM, a koff of 0.00219 s⁻¹ and a kon of 2.76e+06 M⁻¹ s⁻¹.
